Among all 150,000 compounds or so, about 540 (0.36%) showed an effect of 50% or more. The list shows a part of the results.

As usually defined, the % Inhibition is the change of the read-out against control, counted positive when it falls.

In the assay the test system is Plasmodium falciparum. Put plainly: Primary screen in NF54 nanoGlo assay, in single point, at 2uM, 72h; a lower Z score goes with more inhibition. The assay is classed as functional, Erythrocyte. Particulars: timepoint 72 hour.
`Cn1cnc(C(=O)N[C@@H]2CCOc3c(F)ccc(F)c32)c1`: the “% Inhibition” value is recorded as -5% and the Z score is recorded as 0.79.
On to `COc1ccc(F)c(CN2CCC([C@H](C)N3CCN(C)CC3)CC2)c1Cl`, for which the “% Inhibition” value was found to be 2% and the Z score is given as -0.43.
In the case of `O=C(c1ccco1)N1CCN(c2c(O)nc3ccc(Cl)cc3c2-c2ccccc2)CC1`, the “% Inhibition” value was found to be 1% and the Z score is on record as -0.17.
In the same order, the values of `Cc1cc(C)c2c(C(=O)N(C)C)cc(-c3cnc(C)nc3)nc2c1` are -10% and 1.69.
For `CN(Cc1nc2ccc(F)cc2[nH]1)c1ccc(-c2nccn2C)nn1`, the “% Inhibition” value is reported as -13% and the Z score is 2.49.
For `CNc1nc(C)cc(C(=O)Nc2cc(C3CCCCC3)[nH]n2)n1` the same measures were -10% and 1.24.
In the same order, the values of `Fc1cc2c(c(CN3CCCC4CCCCC43)c1)OCOC2` (stereo not given) are -14% and 2.12.
Regarding `CC(=O)Nc1ccc(S(=O)(=O)NCCn2c(-c3ccccc3)nc3cccnc32)cc1`, the “% Inhibition” value is listed as -6% and the Z score stood at 1.
In the same order, the values of `CNCc1ccc(CNC(=O)c2cn(-c3nc(C)cc(C)n3)nc2C(C)C)cc1` are 4% and -0.82.
For the molecule `Cc1nc(N2CCCCCCC2)ncc1[C@H](C)NCc1cccnc1`, the “% Inhibition” value is -17% and the Z score is listed as 1.54.
Take `CN1CCO[C@H](CNC(=O)Nc2ccccc2C(C)(F)F)[C@H]1c1cnn(C)c1`: the “% Inhibition” value is recorded as -5% and the Z score was found to be 0.68.
Consider `c1ccc(-n2nnnc2NC2CCCCCC2)cc1`, for which the “% Inhibition” value is given as -4% and the Z score worked out at 0.48.
In the same order, the values of `COc1ccccc1C(=O)N1CCN(Cc2ccc(N(C)C)nc2)CC1` are 2% and -0.44.
For `CCN(C)c1ccccc1NC(=O)c1cnc(C)cn1`, the “% Inhibition” value is -11% and the Z score came out at 1.65.
In the same order, the values of `CCC[C@@H](C#N)NS(=O)(=O)c1ccc(CC)s1` are -6% and 0.84.
For `CS(=O)(=O)Nc1cccc2c1CCN(CCc1nc3ccccc3c(=O)[nH]1)C2`, the “% Inhibition” value is given as -10% and the Z score is listed as 1.97.
In the same order, the values of `CC1=C[C@@H](CN2CCN(C)CC2)[C@H](C(C)C)C[C@H]1Cc1nnc(-c2ccccc2)o1` are 17% and -1.94.
For `O=C(NCCCc1cccnc1)Nc1cc(N2CCOCC2)ccc1Cl` the same measures were -2% and 0.32.
`CC(=O)NC1CCC(NC[C@H]2COC3(CCCCCC3)O2)CC1` (stereo not given in full): the “% Inhibition” value is recorded as 3% and the Z score is -0.31.
In the same order, the values of `O=C(C1CCCCO1)N1CC(O)(C(F)(F)F)c2cccnc21` (stereo not given) are -1% and 0.16.
In the same order, the values of `O=C(Nc1cccc2cccnc12)C(=O)N1CCCCC[C@H]1c1ccccc1` are 8% and -1.01.
For `Cc1cc(OC(F)F)ccc1NC(=O)N1C[C@H]2CC=CC[C@H]2C1`, the “% Inhibition” value is listed as 4% and the Z score is recorded as -0.58.
In the case of `CN(C)Cc1cc(-c2ccccc2)ccc1OCC(=O)N1CCN(c2cccc(Cl)c2)CC1`, the “% Inhibition” value is reported as -14% and the Z score is on record as 1.96.
As for `CCN[C@@H](CC(=O)Nc1ccc(Cl)c(Cl)c1)C(=O)O`, the “% Inhibition” value is on record as -18% and the Z score is 2.25.
With `CS(=O)(=O)N1CCCC(NS(=O)(=O)[C@H]2C[C@@H]2c2ccccc2)C1` (stereo not given in full), the “% Inhibition” value was determined as 13% and the Z score is given as -1.46.
In the same order, the values of `C=CCNC(=O)C(=O)NC1CCCCC1C` (stereo not given) are -3% and 0.44.
For `C[C@H](F)CCNC(=O)N1CCC=C(F)C1` the same measures were -12% and 1.98.
Regarding `CCCN1CCN(Cc2cc(C#N)c(C)[nH]2)CC1=O`, the “% Inhibition” value is reported as -15% and the Z score amounted to 2.51.
In the case of `Cc1c[nH]c(CNC(=O)N(C)Cc2sccc2C)n1`, the “% Inhibition” value is 6% and the Z score was -0.96.
With `CC1=CCCC(C)C1CNCC(C)(O)c1cnn(C)c1` (stereo not given), the “% Inhibition” value was 6% and the Z score is recorded as -0.68.
Regarding `Cc1ncoc1C(=O)N1CCN(Cc2ccc3c(c2)OCO3)CC1`, the “% Inhibition” value was -1% and the Z score is on record as 0.09.
Take `CC(C)(CNC(=O)[C@@H]1CC[C@H](CN2CCOCC2)O1)n1cccn1`: the “% Inhibition” value came to 8% and the Z score is given as -1.4.
Regarding `Cc1ccc(C(=O)NS(=O)(=O)CC2(C#N)CCC2)c(Cl)c1`, the “% Inhibition” value was -8% and the Z score is recorded as 1.06.
With `CN(C)CC(O)COc1ccc(S(=O)(=O)c2ccc(OCC(O)CN(C)C)c(Cl)c2)cc1Cl` (stereo not given), the “% Inhibition” value worked out at 54% and the Z score is -6.62.
For `COc1ccc2c(c1OC)CC[C@@H]2Nc1cnn(C)c1C` the same measures were -11% and 1.16.
With `Cc1nn(C)c(C)c1NC(=O)[C@H](Cc1ccccc1)n1cnnn1`, the “% Inhibition” value worked out at 7% and the Z score is reported as -0.95.
In the same order, the values of `Cc1cc(C(=O)N2CCO[C@H](C(C)(C)C)CC2)ncn1` are -3% and 0.37.
In the same order, the values of `COc1ccc2cc(NC(=O)c3n[nH]c4c3CCCC4)cnc2c1` are -3% and 0.43.
For `O=C(Nc1ccccc1)N[C@H]1CCCN(C2CCCCCC2)C1` the same measures were -3% and 0.41.
As to `Cc1ccsc1CN(C(=O)c1cnccn1)c1ccc(F)c(Cl)c1`, the “% Inhibition” value turned out to be 0% and the Z score worked out at 0.05.
In the same order, the values of `O=C(Nc1cnc(CC2CC2)nc1)N1C[C@@H]2CS(=O)(=O)C[C@@H]2C1` are -9% and 1.37.
For `COc1ccc2[nH]c(-c3nc(CCN(C)C(=O)c4ccccc4OC)no3)cc2c1` the same measures were -5% and 0.91.
Regarding `Cc1cc(C(=O)N2CC3CCC3(Nc3ccc(C(F)(F)F)cn3)C2)n(C)n1` (stereo not given), the “% Inhibition” value is -1% and the Z score was 0.13.
In the case of `O=C(CCc1nc2ccccc2[nH]1)N1CCN(S(=O)(=O)c2ccc3ccccc3c2)CC1`, the “% Inhibition” value was -2% and the Z score was 0.34.
In the same order, the values of `COCc1nccc(Oc2ccc(C)nc2)n1` are -6% and 1.23.
In the same order, the values of `CC1CCN(C(=O)c2ccc(NCc3ccncc3)nc2)CC1` are -5% and 0.73.
For `O=C(N[C@@H](Cc1ccncc1)C(=O)O)c1cccc(C2CC2)c1` the same measures were 14% and -1.6.
For `CN1C[C@@H](C(=O)N2CCC(O)(c3ccc(F)cc3)CC2)Oc2ccccc21`, the “% Inhibition” value is given as -11% and the Z score turned out to be 1.44.
For the molecule `CCn1cc(S(=O)(=O)N(CC(C)(C)C)c2cccnc2)cn1`, the “% Inhibition” value is -8% and the Z score was 1.16.
`O=C(c1ccc2c(c1)CCCC2)N1CCC[C@H]1CO`: the “% Inhibition” value is listed as -18% and the Z score was 2.1.
For `COc1ccc(CC(=O)N2c3ccccc3CCc3ccccc32)cc1` the same measures were -1% and 0.15.
In the same order, the values of `N#Cc1cccnc1Oc1ccc2oc3ccccc3c2c1` are -4% and 0.55.
In the same order, the values of `N#Cc1nc2sc(N)c(-c3nc4ccccc4[nH]3)c2nc1C#N` are -8% and 1.14.
As to `CC(C)(O)C1CN(C(=O)c2nn(-c3ccc(Cl)cc3F)c3c2CCC3)C1`, the “% Inhibition” value is recorded as -4% and the Z score is 0.43.
`Cc1ccsc1CN(C)c1cc([C@H]2C[C@H](N)C2)ncn1`: the “% Inhibition” value is reported as -3% and the Z score amounted to 0.54.
In the same order, the values of `CCOC1CC(N(C)S(=O)(=O)c2cnc(C)s2)C12CCC2` (stereo not given) are -5% and 0.63.
For `CCN1CC2(CCN(C(=O)c3ccc(Cl)s3)CC2)CC1=O` the same measures were 6% and -1.09.
For the molecule `COc1ccc(CCCN(C)c2cc(N3CCC[C@H](CO)C3)ncn2)cc1`, the “% Inhibition” value is -17% and the Z score was determined as 1.74.
As for `CN(CCOc1ccc(Br)cc1)C(=O)c1ccc(N(C)C)cc1`, the “% Inhibition” value is on record as 4% and the Z score is reported as -0.84.
As to `C[C@H](NC(=O)c1ccc(=O)n(C)c1)c1ccc2[nH]ccc2c1`, the “% Inhibition” value is reported as -3% and the Z score is on record as 0.48.
In the same order, the values of `Cc1nc2ccc(N3CCC[C@H](S(C)(=O)=O)CC3)nn2n1` are 2% and -0.4.
In the same order, the values of `C[C@]1(C(=O)O)CCN(C(=O)c2csc(-c3ccc(Cl)s3)n2)C1` are -1% and 0.11.
For `COC(=O)c1cc(N)cc(C(=O)OC)c1` the same measures were 35% and -3.98.
Regarding `O=C(Cn1cnc2nc(N3CCOCC3)sc2c1=O)Nc1cccc(F)c1`, the “% Inhibition” value is recorded as -13% and the Z score is recorded as 1.54.
In the same order, the values of `COCCC1(c2noc(-c3ccncc3)n2)CCN(C(=O)c2cn[nH]c2)CC1` are 5% and -0.69.
Consider `c1ccc(-c2ncc(CNc3ncccn3)s2)nc1`, for which the “% Inhibition” value worked out at 0% and the Z score was determined as 0.01.
On to `Cc1nc(CCC(=O)NCc2ccc3[nH]c4c(c3c2)CCCCCC4)n[nH]1`, for which the “% Inhibition” value is -16% and the Z score is given as 1.94.
For `CCOc1cc(NC[C@H](O)C(C)(C)C)ncn1` the same measures were -6% and 0.94.
For `O=C(c1ccncc1)N1CCCC[C@@H]1CCN1CCCCC1` the same measures were -1% and 0.22.
On to `COc1ccc(OC[C@H]2CCCN(Cc3nnc(C)s3)C2)cc1`, for which the “% Inhibition” value is -1% and the Z score stood at 0.15.
As to `COCc1ccc(CC2CCN(C(=O)c3ccco3)CC2)cc1`, the “% Inhibition” value is -14% and the Z score amounted to 2.69.
For the molecule `CCC(=O)Nc1ccc(Cc2nc3cc(C(=O)N4CCCCCC4)ccc3[nH]2)cc1`, the “% Inhibition” value was -15% and the Z score was found to be 1.78.
As for `CCn1cc(CN2C[C@@H]3c4ccc(OC)cc4OC[C@]3(CO)C2)cn1`, the “% Inhibition” value was -1% and the Z score was determined as 0.26.
In the same order, the values of `CC1(CNC2CCC(NC(=O)OC(C)(C)C)CC2)CCOCC1` (stereo not given) are -10% and 1.68.
As for `OCC#Cc1csc(CN2CC[C@H](CO)C2)c1`, the “% Inhibition” value stood at 5% and the Z score is listed as -0.88.
In the same order, the values of `CN(CCc1ncon1)C(=O)CCOc1ccccc1` are -18% and 3.38.
In the same order, the values of `O=C(CCOc1ccccc1)N1CC[C@H](c2ccc(F)cc2)[C@@H](O)C1` are -14% and 2.04.
For `O=C(NCc1ccco1)NC[C@H]1CCCO1` the same measures were 1% and -0.1.
On to `CCOc1ccc(-c2nc(N(CC)Cc3ccccc3)c3ccccc3n2)cc1`, for which the “% Inhibition” value amounted to 3% and the Z score is -0.43.
In the same order, the values of `COc1ccc(N(C(=O)Cn2nnc3ccccc32)[C@@H](C(=O)Nc2ccc(F)cc2)c2cc(OC)c(OC)c(OC)c2)cc1` are -23% and 2.72.
In the same order, the values of `CN(C)c1ccc(/C=C\c2ccnc(/C=C/c3ccc(N(C)C)cc3)c2)cc1` are 6% and -1.06.
For `COc1cc(OC)nc(N2CCC([C@H](C)N3CCN(C)CC3)CC2)n1` the same measures were -2% and 0.15.
Consider `N#Cc1ccccc1OCCN1CCS(=O)(=O)CC1`, for which the “% Inhibition” value is given as -3% and the Z score is on record as 0.38.
For `O=C(NC1CCCC1)C1C2CCC(C2)N1C(=O)c1ccccc1` (stereo not given) the same measures were 21% and -2.41.
As to `N#Cc1ccc(C(=O)N2CCC[C@@](F)(CO)C2)[nH]1`, the “% Inhibition” value is on record as -27% and the Z score turned out to be 5.08.

The values above are taken from ChEMBL document CHEMBL4888484, “Replenishing the malaria drug discovery pipeline: Screening and hit evaluation of the MMV Hit Generation Library 1 (HGL1) against asexual blood stage Plasmodium falciparum ,using a nano luciferase reporter read-out” (2022).
